This note sets out measurements from PMC6451091.

The other results are listed elsewhere or left out. For part of these data: At the low end of the ranking, values are background and their order means little. For part of these data: The protein was read in a cell extract, so binding may be indirect.

Common to all, as to details: 20 mM HEPES pH 7.9, 100 mM NaCl, 1 mM DTT, 0.2 mg/mL BSA, 0.02% Triton X-100, 2% milk, 0.4 mg/mL salmon testes DNA; 1 h; temperature not stated; high values mean tight binding; double strand, one strand shown; sequences stand for … in GCCTAGCAC…GTGCTAGGTCTTGATTCGCTTGACGCTGCTG
Test [1] addresses PU.1 (IVT) (UniProt P17947). The test can be described thus: protein-binding microarray (PBM).
Test [2] addresses PU.1 (endogenous, THP-1 nuclear extract) (UniProt P17947). Nature of the test: nuclear extract protein-binding microarray (nextPBM).
Test [3] has as its target T1, FLI1 (endogenous, THP-1 nuclear extract) (UniProt Q01543).
T1 sequence: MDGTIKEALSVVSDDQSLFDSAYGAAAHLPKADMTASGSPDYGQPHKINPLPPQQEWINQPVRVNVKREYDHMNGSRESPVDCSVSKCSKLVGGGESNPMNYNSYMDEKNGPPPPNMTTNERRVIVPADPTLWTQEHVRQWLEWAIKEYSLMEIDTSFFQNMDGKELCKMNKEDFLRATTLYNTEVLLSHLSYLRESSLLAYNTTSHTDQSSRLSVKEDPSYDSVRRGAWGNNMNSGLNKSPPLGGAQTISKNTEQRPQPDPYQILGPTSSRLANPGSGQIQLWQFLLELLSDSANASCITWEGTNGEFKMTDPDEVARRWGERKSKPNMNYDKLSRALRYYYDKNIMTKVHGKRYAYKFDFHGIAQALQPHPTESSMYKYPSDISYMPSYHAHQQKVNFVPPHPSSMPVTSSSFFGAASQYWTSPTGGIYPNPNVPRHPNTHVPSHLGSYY
The test is described as above.

For the sequence TGTAGGGGGAAGTGTAGTTT, the values for the binding signal in test [1], in test [2] and in test [3] were 3.74 z-score, 3.46 z-score and 1.79 z-score, respectively.
As to GAAAACAGGAAGCCCCATAG, the binding signal in test [1] amounted to 4.09 z-score; in test [2], 5.19 z-score; in test [3], 3.04 z-score.
AGAATGAGGAAGTGGAAGCA: the binding signal was 7.55 z-score in test [1], 7.27 z-score in test [2] and 3.8 z-score in test [3].
Turning to AGAAAGAGGAAATGACCTAT, the binding signal in test [1] was found to be 5.8 z-score; in test [2], 6.42 z-score; in test [3] it was 3.37 z-score.
For the sequence AGAGACAGGAAGTGCAAGAG, the values for the binding signal in test [1], in test [2] and in test [3] were 2.79 z-score, 2.74 z-score and 4.69 z-score, respectively.
The matching figures for ATTAAGGGGAAGTGATCAAA: 5.73 z-score, 5.7 z-score and 2.45 z-score.
The matching figures for GGTTTAAGGAAGTGATAGTA: 5.37 z-score, 5.62 z-score and 2.38 z-score.
AAAAAGAGGAAGTGCACAAG: the binding signal came to 8.64 z-score in test [1], 7.22 z-score in test [2] and 4.26 z-score in test [3].
For AGAAAGAGGAAGTGCAACCA the same measures were 8.06 z-score, 7.4 z-score and 4.62 z-score.
For CAAATGAGGAACTGTTGCGG, the binding signal in test [1] was 5.57 z-score; in test [2], 5.99 z-score; in test [3], 1.87 z-score.
With CAAAACAGGAAGTGATTCAT, the binding signal was determined as 7.82 z-score in test [1], 7.36 z-score in test [2] and 5.67 z-score in test [3].
For CAGAAAAGGAAGTGCAATAA the same measures were 3.72 z-score, 3.07 z-score and 2.5 z-score.
For GAAAGGAGGAAGTCAGAGTG the same measures were 5.26 z-score, 6.07 z-score and 2.78 z-score.
For GAAAGGAGGAAGTGATCATA the same measures were 6.14 z-score, 6.63 z-score and 3.21 z-score.
Regarding AAAATGAGGAAGTGAACAAA, the binding signal in test [1] was 8.02 z-score; in test [2] it was 7.3 z-score; in test [3], 3.51 z-score.
In the case of TGTGGGAGGAAGTGCTTTTG, the binding signal came out at 4.2 z-score in test [1], 4.14 z-score in test [2] and 2.9 z-score in test [3].
The matching figures for ACAGAGAGGAAGTAGATAAA: 4.75 z-score, 5.07 z-score and 2.85 z-score.
As to GAAATCAGGAAGTGAACTCT, the figures for the binding signal in test [1], in test [2] and in test [3] were 6.18 z-score, 6.49 z-score and 3.79 z-score, respectively.
With ACAAAGAGGAAGTGAAGGGA, the binding signal was 6.77 z-score in test [1], 6.66 z-score in test [2] and 3.63 z-score in test [3].
The matching figures for GGAAAAGGGAAGTGGGAGGA: 6.11 z-score, 6.59 z-score and 2.92 z-score.
As to AAAAAAGAGAAGTGGGGGAA, the binding signal in test [1] worked out at 5.77 z-score; in test [2] it was 6.11 z-score; in test [3] it was 2.64 z-score.
For TAATGGAGGAAGTGGAGATA the same measures were 3.22 z-score, 3.38 z-score and 2.16 z-score.
Consider GGTTTGGGGAAGTGGGCAGA, for which the binding signal in test [1] was determined as 4.75 z-score; in test [2], 4.99 z-score; in test [3] it was 1.76 z-score.
Regarding CAAAAAGGGAAGTGGGGAGA, the binding signal in test [1] turned out to be 6.4 z-score; in test [2], 6.48 z-score; in test [3], 2.49 z-score.
The matching figures for GAAATGAGGAAGTGACAGAC: 7.94 z-score, 7.23 z-score and 3.77 z-score.
The matching figures for GAAAACAGGAACTGGCAAAG: 5.45 z-score, 6.05 z-score and 2.56 z-score.
Turning to AGAAAGAGGAAGTGACTTGC, the binding signal in test [1] came to 8.54 z-score; in test [2], 7.37 z-score; in test [3], 3.97 z-score.
With ACAAAAAGGACCTGTGCCCC, the binding signal in test [1] was -0.688 z-score; in test [2] it was -0.185 z-score; in test [3] it was -0.839 z-score.
CAGAAAGGGAAGTCAGAGAG: the binding signal was found to be 3.53 z-score in test [1], 4.09 z-score in test [2] and 1.76 z-score in test [3].
The matching figures for AGAAAGGGGAAGAGGCTAGG: 3.74 z-score, 4.35 z-score and 1.15 z-score.
In the case of AAATTGAGGAAGTGCAGAGA, the binding signal turned out to be 7.31 z-score in test [1], 7.14 z-score in test [2] and 3.33 z-score in test [3].
For TGAAAGAGGAAGTGCAAGCA the same measures were 7.24 z-score, 7.17 z-score and 3.41 z-score.
The matching figures for AGGAAGAGGAAGTGCTCTGG: 6.41 z-score, 6.63 z-score and 4.04 z-score.
For CAGAAAAGGAAGTGGGGGTG the same measures were 3.51 z-score, 3.66 z-score and 2.75 z-score.
With TAAAAAAGGAACTGGCTAGA, the binding signal in test [1] turned out to be 3.1 z-score; in test [2], 3.08 z-score; in test [3], 1.24 z-score.
As to ACAAAAAGGAACTGTGCCCC, the binding signal was found to be 1.82 z-score in test [1], 1.55 z-score in test [2] and 0.392 z-score in test [3].
For TGAAAGAGGAAGTGCAACCA, the binding signal is 7.27 z-score in test [1], 7.28 z-score in test [2] and 3.66 z-score in test [3].
For ACAAAAACGAACTGTGCCCC the same measures were -0.339 z-score, -0.132 z-score and 0.0928 z-score.
In the case of AAGAAAAGGAAGTCCAGCTG, the binding signal stood at 3 z-score in test [1], 2.86 z-score in test [2] and 2.18 z-score in test [3].
The matching figures for GGAAAGGGGAAGTGGGTTAA: 7.25 z-score, 7.01 z-score and 3.83 z-score.
The matching figures for AAAAGAGGGAAGTGAAAATT: 5.83 z-score, 6.31 z-score and 2.46 z-score.
The matching figures for AAGAACAGGAAGTGGGACAT: 5.16 z-score, 6.36 z-score and 4.9 z-score.
On to TGTAAGGGGAAGTGAGAAGA, for which the binding signal was 4.5 z-score in test [1], 5.36 z-score in test [2] and 2.24 z-score in test [3].
On to AGAAACAGGAAGTGATTTAC, for which the binding signal in test [1] worked out at 7.72 z-score; in test [2], 7.3 z-score; in test [3], 5.82 z-score.
The matching figures for ACAAAAAGGAACTGTGCCAC: 1.92 z-score, 1.51 z-score and 0.619 z-score.
For ATAGGGAGGAAGTTGTAACT the same measures were 4.15 z-score, 3.65 z-score and 2.57 z-score.
With TTAAAGAGGAAGAGCATCTT, the binding signal in test [1] turned out to be 3.21 z-score; in test [2], 3.31 z-score; in test [3], 1.51 z-score.
Consider GGAAAGAGGAAGTCAAAAAT, for which the binding signal was 7.85 z-score in test [1], 7.24 z-score in test [2] and 3.86 z-score in test [3].
As to TGAAAGTGGAAGTGCAACCA, the binding signal in test [1] was determined as 3.09 z-score; in test [2] it was 3.01 z-score; in test [3], 1.26 z-score.
The matching figures for AATAAGAGGAAGTGGCAAGA: 6.57 z-score, 6.82 z-score and 3.51 z-score.
The matching figures for ACAATGAGGAAGTCAGCCAA: 5.28 z-score, 6.37 z-score and 2.07 z-score.
For TTAAGAAGGAAGTGGGTTTT the same measures were 3.56 z-score, 3.23 z-score and 2.33 z-score.
GAAAAGAGGAAATGGGGTGG: the binding signal in test [1] turned out to be 5.39 z-score; in test [2], 6.13 z-score; in test [3], 3.05 z-score.
The matching figures for AGAAACGGGAAGTGGAATTG: 7.29 z-score, 7.13 z-score and 3.49 z-score.
As for CCAAAGCGGAAGTGTCGGGC, the results for the binding signal in test [1], in test [2] and in test [3] were 6.38 z-score, 6.46 z-score and 5.05 z-score, respectively.
CAGAAGAGGAAGTCAGAGAG: the binding signal in test [1] amounted to 5.31 z-score; in test [2], 6.17 z-score; in test [3] it was 2.87 z-score.
Turning to AAAAACAGGAAGTCACAATA, the binding signal in test [1] was found to be 7.53 z-score; in test [2], 7.13 z-score; in test [3], 4.67 z-score.
As to AAGAAGGGGAAGTGCCCTCA, the binding signal amounted to 5.91 z-score in test [1], 6.53 z-score in test [2] and 2.61 z-score in test [3].
For GGGAAGAGGAAGTATGCAAT the same measures were 5.97 z-score, 6.56 z-score and 2.96 z-score.
The matching figures for TAGAAGAGGAAATGAGAGGT: 2.41 z-score, 2.73 z-score and 2.61 z-score.
